Experimental data from PubChem BioAssay AID2100 (National Center for Advancing Translational Sciences (NCATS), 2009).
Hit rate of the full screen: of about 300,000 compounds, about 1,200 (0.4%) were called active. This list was built around the results that the source calls inconclusive (neither active nor inactive); the mix of calls is not that of the screen. Calls come from the whole dose curve; as a rule, active = well fitted inhibition curve with a large enough effect; inconclusive = small, poorly fitted or top-dose-only effect, or another doubt; inactive = no such curve, though single readings can be large or run the other way. Potencies beside an inconclusive call are fits to weak or partial responses and may not hold up.
Potency is the fitted concentration of half-maximal effect.
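Throughout, for activity change, negative = inhibition: 0% = full enzyme reaction and -100% = no-enzyme basal signal.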

These molecules were tested against Lysosomal alpha-glucosidase (Homo sapiens) (UniProt P10253) (assay: qHTS Assay for Inhibitors and Activators of Human alpha-Glucosidase Cleavage of Glycogen). Conditions: recombinant GAA, glycogen substrate, Amplex Red glucose oxidase fluorescence; activity change, negative = inhibition: at 76.4 µM (top of the series) unless noted.
In short: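 Recombinant human enzyme (4 nM); glycogen substrate; 37 C, 40 min, pH 5.0. Readout: coupled glucose oxidase/Amplex Red fluorescence.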
For Cc1ccc2[nH]c(=O)c(CN3CCCCC3)c(-c3ccccc3)c2c1, the Potency was inconclusive: 9.92 µM [activator, partial curve]. In the case of N#CC1=C(N)SC(N)=C(C#N)C1c1c(Cl)cccc1Cl, the Potency is reported as inconclusive: 28 µM [inhibitor, single point]. CCOc1cc(/C=C2\SC(=S)N(Nc3ccccc3)C2=O)ccc1O was tested, and the Potency was inconclusive: 12.6 µM [inhibitor, partial curve]. For C=CCNC(=S)NNC(=O)c1ccc(C)c(Cl)c1, the Potency was inconclusive: 1.58 µM [inhibitor, partial curve]. With Cc1ccccc1Nc1cc(C)c2c(O)cccc2n1 the Potency was inconclusive: 12.6 µM [inhibitor, partial curve]. In the case of CCc1c(C)[nH]n(-c2nc(-c3ccccc3)cs2)c1=O, the Potency is reported as inconclusive: 14.1 µM [inhibitor, partial curve]. With O=C(NNS(=O)(=O)c1ccccc1)c1ccncc1 the Potency was inconclusive: 39.8 µM [inhibitor, partial curve]. For CN(C)c1cc(N/N=C/c2ccccc2C(F)(F)F)nc(N(C)C)n1, the Potency was inconclusive: 31.6 µM [inhibitor, partial curve]. With COc1cc(/C=N/Nc2nncn2/N=C/c2ccc(O)c(OC)c2)ccc1O the Potency was active: 10 µM. In the case of Cc1ccc(NC(=O)CN(C)C(=S)NC2CC2)cc1, the Potency is reported as inconclusive: 39.8 µM [activator, partial curve, poor fit]. With O=C1N=C(c2ccccc2)C(c2ccccc2)N1 (centres undefined) the Potency was inconclusive: 9.92 µM [inhibitor, partial curve]. In the case of O=C1CN(CC(=O)N2CCOCC2)c2ccccc2O1, the Potency is reported as inconclusive: 2.49 µM [inhibitor, full curve, poor fit]. With Cc1ccc(-n2c(SCC(=O)N/N=C/c3ccccc3C(=O)O)nnc2-c2ccc(Cl)cc2)cc1 the “activity change, negative = inhibition” value was inactive: 5.42%. COc1cc(/C=N/NC(=O)c2cccnc2)ccc1OC(=O)c1cc(OC)c(OC)c(OC)c1 was tested, and the Potency was inconclusive: 28.2 µM [inhibitor, single point]. In the case of Cc1ccc(-c2nc3ccccn3c2Nc2ccc3c(c2)OCO3)cc1, the Potency is reported as inconclusive: 20 µM [inhibitor, partial curve]. For COc1cccc(C(=O)/C=C/Nc2cc(C)ccc2O)c1, the Potency was active: 28.2 µM. In the case of COc1ccc(C(=O)c2cn(Cc3ccc(F)cc3)c3ccc(C)cc3c2=O)cc1, the “activity change, negative = inhibition” value is reported as inactive: 10.6% [at 76.3 µM]. In the case of COc1cc(C2NC(=O)NC(C)=C2C(=O)OCC2CCCO2)ccc1O (centres undefined), the Potency is reported as inconclusive: 6.31 µM [inhibitor, full curve]. In the case of Oc1cc(O)c2c(c1)O[C@H](c1ccc(O)c(O)c1)[C@H](O)C2, the Potency is reported as active: 10 µM. CCCCCNC(=O)CC1Nc2c3ccccc3nc(=S)n2C1=O (centres undefined) was tested, and the Potency was inconclusive: 22.2 µM [inhibitor, partial curve]. C=CCn1c(=O)c2c(C)c(C)sc2n2c(Nc3ccccc3)nnc12 was tested, and the Potency was inconclusive: 39.8 µM [inhibitor, partial curve]. In the case of Cc1ccc(C)c(NC(=O)Cn2c(=O)n(Cc3ccco3)c(=O)c3oc4ccccc4c32)c1, the “activity change, negative = inhibition” value is reported as inactive: 2.97% [at 76.3 µM]. For O=C(NCc1ccco1)c1cc(S(=O)(=O)N2CCOCC2)ccc1Cl, the activity change, negative = inhibition was inconclusive: 31.9% [activator]. In the case of CC(C)(C)c1ccc(-c2nc(C#N)c(NCc3cccnc3)o2)cc1, the Potency is reported as inconclusive: 31.4 µM [inhibitor, single point]. For O=C(NNS(=O)(=O)c1ccccc1[N+](=O)[O-])c1ccc(F)cc1, the Potency was inconclusive: 17.6 µM [activator, partial curve, poor fit]. CCOC(=O)C1(Cc2ccccc2C(F)(F)F)CCN(C(C)CCn2cccn2)CC1 (centres undefined) was tested, and the Potency was active: 4.47 µM. With C=CC(=O)NCCCc1cc(C(C)(C)C)c(O)c(C(C)(C)C)c1 the Potency was inconclusive: 28.2 µM [inhibitor, partial curve]. COc1cccc(NS(=O)(=O)c2ccc3[nH]cc(C(=O)N4CCCCCC4)c(=O)c3c2)c1 was tested, and the “activity change, negative = inhibition” value was inactive: -22.6% [at 76.3 µM]. COc1cc(/C=N/NC(=O)c2cc(-c3cccs3)nc3ccccc23)ccc1O was tested, and the Potency was inconclusive: 44.7 µM [inhibitor, single point]. For COc1cc(C2c3sc(=O)[nH]c3SC3C(=O)N(c4ccc(C)cc4)C(=O)C32)ccc1O (centres undefined), the Potency was active: 11.2 µM. O=C(O)C1C2CCC(C2)C1C(=O)N1CCCC1 (centres undefined) was tested, and the “activity change, negative = inhibition” value was inactive: 5.13% [at 76.3 µM]. COc1ccccc1Nc1nnc(SCC2CCCCO2)s1 (centres undefined) was tested, and the “activity change, negative = inhibition” value was inactive: 5.81%. For Cc1cccc(C(CC(=O)NCc2ccco2)c2ccccc2)c1O (centres undefined), the Potency was inconclusive: 31.6 µM [inhibitor, partial curve]. In the case of O=[N+]([O-])c1cc(-c2ccc(C(=S)N3CCOCC3)o2)ccc1Cl, the “activity change, negative = inhibition” value is reported as inactive: -6.52%. For CNc1ccc(Br)cc(C(=O)/C=C/c2ccc3c(c2)OCO3)c1=O, the Potency was inconclusive: 22.2 µM [inhibitor, partial curve]. With COc1cc(/C=N/NC2=NS(=O)(=O)c3ccccc32)ccc1OC(C)=O the Potency was inconclusive: 31.6 µM [inhibitor, partial curve]. Cc1cc2c(cc1C)/C(=N/NC(=O)c1ccccn1)CCC2 was tested, and the Potency was inconclusive: 50.1 µM [inhibitor, single point]. In the case of CCCOc1ccc(N/C=C/C(=O)C(C)(C)C)cc1, the Potency is reported as active: 31.6 µM. In the case of NNC(=O)CN1C(c2ccccc2)=Nc2ccc(Br)cc2C1c1ccccc1 (centres undefined), the “activity change, negative = inhibition” value is reported as inactive: -15.1%. In the case of Cn1c(NNC(=O)c2ccc(C(C)(C)C)cc2)cc(=O)n(C)c1=O, the Potency is reported as inconclusive: 25.1 µM [inhibitor, partial curve]. O=C(NNC1=C(C(=O)C(F)(F)F)CCC1)c1ccccc1O was tested, and the Potency was inconclusive: 22.4 µM [inhibitor, single point]. In the case of Cc1cccnc1Nc1nc(-c2ccc(O)cc2O)cs1, the Potency is reported as inconclusive: 35.2 µM [inhibitor, partial curve]. For O=C(CCN1CCN(c2ccccc2)CC1)N/N=C/c1ccc(O)c(O)c1O, the Potency was inconclusive: 39.8 µM [inhibitor, partial curve]. For O=C(NNC(=S)NC(=O)c1cccnc1)c1ccc(Cl)cc1, the Potency was inconclusive: 39.5 µM [inhibitor, single point]. With NNC(=O)c1ccc(-c2cccc([N+](=O)[O-])c2)o1 the Potency was inconclusive: 20 µM [inhibitor, partial curve]. For O=C(NCc1ccco1)/C(=C\c1cccs1)NC(=O)c1ccco1, the “activity change, negative = inhibition” value was inactive: -3.89%. For C/C(=N\NC(=O)Cc1c(C)[nH][nH]c1=O)c1ccc2ccccc2c1, the Potency was inconclusive: 28.2 µM [inhibitor, partial curve]. For COc1cc(/C=N/NC(=O)c2cc(C3CC3)[nH]n2)ccc1O, the Potency was inconclusive: 25.1 µM [inhibitor, partial curve]. For Cc1cc(C(=O)Nc2nnc(C(F)(F)F)s2)cs1, the “activity change, negative = inhibition” value was inactive: 3.45%. For CC1=NNC(=O)C1CCC(=O)N/N=C/c1c(Cl)cccc1Cl (centres undefined), the Potency was inconclusive: 39.8 µM [inhibitor, single point]. COC(=O)c1ccc(NC(=S)Nc2ccc(O)cc2)cc1 was tested, and the Potency was active: 7.94 µM. For COc1ccccc1C(=O)Nc1nc(-c2ccc(S(=O)(=O)N3CCOCC3)cc2)cs1, the Potency was inconclusive: 6.31 µM [inhibitor, single point]. CC1CC2=C(NC(=S)NC2c2ccccc2F)/C(=C/c2ccccc2F)C1 (centres undefined) was tested, and the Potency was inconclusive: 10 µM [inhibitor, full curve, poor fit]. Cc1csc(SCC(=O)N2CCN(S(=O)(=O)c3ccc(Cl)cc3)CC2)n1 was tested, and the “activity change, negative = inhibition” value was inactive: -4.89%. O=C(c1ccco1)[C@@H]1[C@@H]2C(=O)N(c3ccc(F)cc3)C(=O)[C@@H]2[C@H]2C=Cc3ccccc3N21 was tested, and the Potency was inconclusive: 31.4 µM [activator, partial curve]. CCc1ccc(C(=O)NNc2cc(Cl)ccc2Cl)cc1 was tested, and the Potency was inconclusive: 15.8 µM [inhibitor, partial curve]. In the case of CCc1ccc(C(=O)NNc2ccc(F)cc2)cc1, the Potency is reported as inconclusive: 14.1 µM [inhibitor, partial curve]. With C=CCN1CCN(C(c2ccc(OC)c(OC)c2)c2nnnn2C(C)(C)C)CC1 (centres undefined) the “activity change, negative = inhibition” value was inactive: -6.83%. With CC(C)(C)c1cc(C2=CSC3=NCCN23)cc(C(C)(C)C)c1O the Potency was inconclusive: 20 µM [inhibitor, partial curve]. In the case of O=c1c2c(-c3ccccc3)ccnc2[nH]n1-c1ccccc1, the Potency is reported as inconclusive: 8.91 µM [inhibitor, full curve]. With O=C(O)c1ccc(N/N=C/c2ccc(-c3ccccc3Cl)o2)cc1 the Potency was inconclusive: 28.2 µM [inhibitor, single point]. In the case of Cn1c(-c2ccc3c(c2)OCO3)cnc1NCc1ccc(Cl)cc1, the Potency is reported as inconclusive: 22.4 µM [inhibitor, partial curve]. With CCOc1cc(/C=N/NC(=O)C(OC)c2ccccc2)ccc1O (centres undefined) the Potency was inconclusive: 39.8 µM [inhibitor, single point]. In the case of CCn1c(=O)c2sccc2n2c(CCCC(=O)N3CCN(c4cc(Cl)ccc4C)CC3)nnc12, the “activity change, negative = inhibition” value is reported as inactive: 15.5% [at 76.3 µM]. With O=C(O)CCCNC(=O)/C(=C\C=C\c1ccccc1)NC(=O)c1ccccc1Cl the Potency was inconclusive: 39.8 µM [inhibitor, partial curve]. O=C(CNC(=O)C12CC3CC(CC(C3)C1)C2)N1CCN(S(=O)(=O)/C=C/c2ccccc2)CC1 was tested, and the “activity change, negative = inhibition” value was inactive: -1.28%. With O=C1NC(=O)C2C1C(c1ccccc1)N1C3C(=O)NC(=O)C3C(c3ccccc3)N21 (centres undefined) the activity change, negative = inhibition was inconclusive: 11.6% [activator]. In the case of Cc1c(NS(=O)(=O)c2ccccc2)cc(C(C)C)c(O)c1S(=O)(=O)c1ccc(Cl)cc1, the Potency is reported as active: 11.2 µM. For Oc1c(-c2cc(-c3ccco3)[nH]n2)ccc2ccccc12, the Potency was inconclusive: 11.1 µM [inhibitor, partial curve].
